For 23 cell lines, AUC and IC50 results are on record in the supplement of paper PMC4967469.

Lines with a small IC50 respond at low doses; a fit beyond the top or the lowest dose is shown as a bound at that dose. For AUC the same curve is integrated over the 256-fold range of doses and scaled to a fraction; values near 1 show little effect. For part of these data: Where the top dose is marked as inferred, it was calculated from the reported fits. Where only a bound is given, the exact number is not on record here.

Holding throughout (experiment): Viability of human cancer cell lines after 72 h of drug (GDSC screen)
Compound in one experiment: CN(C)CCOc1ccc(-c2nc(-c3ccncc3)c(-c3ccc4c(c3)CC/C4=N\O)[nH]2)cc1 [SB590885]
The conditions noted are these: top dose 5 µM; top dose inferred. How it is done:
(§1)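 Human cancer cell lines in 384-well plates, medium with 10% serum, drug for 72 h over a 256-fold dose range (nine 2-fold or five 4-fold steps up to the top dose). Adherent lines were fixed and stained with the nucleic acid dye Syto60, suspension lines read with resazurin; signal relative to control wells, capped at 0 and 100%. One two-parameter sigmoid per drug and line, fitted in a mixed model over all curves with the slope shared within a line.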

Compound in another experiment: Cc1cc(C(C)Nc2ccccc2)c2nc(N3CCOCC3)cc(=O)n2c1 [TGX221]
The conditions noted are these: top dose 10 µM. How it is done:
as §1

Compound in a further experiment: CCN(CC)CCCCNc1ncc2cc(-c3cc(OC)cc(OC)c3)c(NC(=O)NC(C)(C)C)nc2n1 [PD-173074]
The conditions noted are these: top dose 2 µM; top dose inferred. How it is done:
as §1

The IC50 is the concentration needed to halve the response being measured.

For A498 (kidney, adherent), the AUC with SB590885 came out at 0.978; in the experiment with TGX221, 0.472; with PD-173074, 0.977. The IC50 was above 5000 nM in the experiment with SB590885, 503 nM in the experiment with TGX221 and above 2000 nM in the experiment with PD-173074.
For BT-474 (breast, adherent), the AUC in the experiment with SB590885 is 0.986; in the experiment with TGX221, 0.985; with PD-173074, 0.985. Further, the IC50 is above 5000 nM with SB590885, above 10000 nM with TGX221 and above 2000 nM in the experiment with PD-173074.
Turning to CAL-148 (breast, suspension), in the experiment with TGX221, the AUC is 0.982 and the IC50 was above 10000 nM.
Consider Calu-6 (lung adenocarcinoma, adherent), for which the values for the AUC in the experiment with SB590885, with TGX221 and with PD-173074 were 0.984, 0.953 and 0.984, respectively. Besides, the IC50 with SB590885 is above 5000 nM; with TGX221, above 10000 nM; in the experiment with PD-173074, above 2000 nM.
In the case of DU-4475 (breast, suspension), the AUC in the experiment with SB590885 worked out at 0.622; with TGX221, 0.988; in the experiment with PD-173074, 0.992. Moreover, the IC50 with SB590885 is 633 nM; with TGX221, above 10000 nM; with PD-173074, above 2000 nM.
For EVSA-T (breast, adherent), the results for the AUC with SB590885, with TGX221 and in the experiment with PD-173074 were 0.984, 0.846 and 0.991, respectively. Further, the IC50 is above 5000 nM in the experiment with SB590885, 5770 nM with TGX221 and above 2000 nM in the experiment with PD-173074.
For KMS-12-BM (myeloma, suspension), in the experiment with TGX221, the AUC worked out at 0.988 and the IC50 is above 10000 nM.
The corresponding values for “NCI-H1299 (large cell lung carcinoma, adherent)” are 0.981 and above 10000 nM.
On to “NCI-H1417 (small cell lung carcinoma, suspension)”, for which, in the experiment with TGX221, the AUC worked out at 0.981 and the IC50 is above 10000 nM. In the experiment with PD-173074, the AUC was 0.964 and the concentration for half-maximal inhibition (IC50) is above 2000 nM.
On to RT4 (bladder, adherent), for which, in the experiment with SB590885, the AUC came to 0.976 and the IC50 is above 5000 nM. In addition, in the experiment with PD-173074, the AUC is 0.945 and the half-inhibitory concentration (IC50) is above 2000 nM.
The corresponding values for RVH-421 (melanoma, adherent) are 0.559, 481 nM, 0.979 and above 2000 nM.
The corresponding values for SAS (head and neck, adherent) are 0.982, above 5000 nM, 0.967 and above 2000 nM.
As for SAT (head and neck, adherent), in the experiment with SB590885, the AUC was found to be 0.951 and the IC50 is above 5000 nM. Also, in the experiment with PD-173074, the AUC is 0.889 and the IC50 was above 2000 nM.
Take “SBC-3 (small cell lung carcinoma, adherent)”: the values for the AUC in the experiment with SB590885 and with PD-173074 were 0.988 and 0.846, respectively. The figures for the IC50 with SB590885 and with PD-173074 were above 5000 nM and 1260 nM, respectively.
Turning to “SBC-5 (small cell lung carcinoma, adherent)”, the AUC turned out to be 0.993 with SB590885 and 0.991 with PD-173074. For the same cell line, the IC50 with SB590885 was above 5000 nM; with PD-173074 it was above 2000 nM.
Consider SCC90 (head and neck, adherent), for which the figures for the AUC with SB590885 and with PD-173074 were 0.981 and 0.977, respectively. Besides, the IC50 with SB590885 is above 5000 nM; with PD-173074, above 2000 nM.
Turning to SCC-9 (head and neck, adherent), in the experiment with SB590885, the AUC is 0.94 and the half-inhibitory concentration (IC50) was above 5000 nM. Besides, in the experiment with PD-173074, the AUC was 0.947 and the IC50 is above 2000 nM.
In the case of SCC-25 (head and neck, adherent), in the experiment with SB590885, the AUC is 0.984 and the IC50 is above 5000 nM. For the same cell line, in the experiment with PD-173074, the AUC is 0.982 and the IC50 was above 2000 nM.
SF295 (glioma, adherent): in the experiment with SB590885, the AUC was 0.95 and the half-inhibitory concentration (IC50) is above 5000 nM. Moreover, in the experiment with PD-173074, the AUC worked out at 0.955 and the IC50 was above 2000 nM.
The corresponding values for SISO (cervix, adherent) are 0.988, above 5000 nM, 0.988 and above 2000 nM.
Regarding SJRH30 (rhabdomyosarcoma, adherent), in the experiment with SB590885, the AUC is 0.979 and the IC50 is above 5000 nM. For the same cell line, in the experiment with PD-173074, the AUC turned out to be 0.959 and the IC50 is above 2000 nM.
Taken in the same sequence, the figures for SK-CO-1 (large intestine, adherent) were 0.891, above 5000 nM, 0.989 and above 2000 nM.
The corresponding values for SK-GT-2 (stomach, adherent) are 0.986, above 5000 nM, 0.986 and above 2000 nM.
